Publication PMC11995724, “Antibiotic target discovery by integrated phenotypic and activity-based profiling of electrophilic fragments” (Cell chemical biology, 2025)
Hit rate of the full screen: of about 3,200 compounds, about 75 (2%) showed an effect of 50% or more. Some of the results follow.

These molecules were tested on T1, S. aureus MSSA476. Conditions: relative growth, OD600, TSB; 25 µM; inhibitor.
T1 construct: MSSA476
Parameters: species or system S. aureus MSSA476 (TSB) or V. cholerae SAD30 (LB); 384-well bacterial growth screen at 25 uM, OD600 relative to DMSO control

Compound | % of control remaining [%]
COc1cc(CC2CN(C(=O)C(C)Cl)C2)cc(OC)c1 (centres unmarked) [7-H07, 2-chloro-1-{3-[(3,5-dimethoxyphenyl)methyl]azetidin-1-yl}propan-1-one] | 113.658
Cc1cc(C(=O)CCl)c(C)n1-c1ccon1 [10-F06, 2-chloro-1-[2,5-dimethyl-1-(1,2-oxazol-3-yl)-1H-pyrrol-3-yl]ethan-1-one] | 106.875
COc1ccccc1N(CC(F)(F)F)C(=O)CCl [4-C18, 2-chloro-N-(2-methoxyphenyl)-N-(2,2,2-trifluoroethyl)acetamide] | 123.487
C=CC(=O)NCc1nnc2ccccn12 [1-H19, N-({[1,2,4]triazolo[4,3-a]pyridin-3-yl}methyl)prop-2-enamide] | 111.473
C=CC(=O)N[C@@H](CN(C)C)c1ccccc1 [2-M19, N-[(1R)-2-(dimethylamino)-1-phenylethyl]prop-2-enamide] | 86.3359
O=C(CCl)NCC(F)(F)c1cccnc1 [6-C21, 2-chloro-N-[2,2-difluoro-2-(pyridin-3-yl)ethyl]acetamide] | 96.2927
O=C(CCl)N1CCCCC1Cn1ccnn1 (centres unmarked) [5-E08, 2-chloro-1-{2-[(1H-1,2,3-triazol-1-yl)methyl]piperidin-1-yl}ethan-1-one] | 93.6248
C=CC(=O)NCc1cn2c(n1)CCCC2 [3-L20, N-({5H,6H,7H,8H-imidazo[1,2-a]pyridin-2-yl}methyl)prop-2-enamide] | 103.439
CC(Cl)C(=O)N1CCC(n2c(=O)[nH]c3ccccc32)CC1 (centres unmarked) [6-N05, 1-[1-(2-chloropropanoyl)piperidin-4-yl]-2,3-dihydro-1H-1,3-benzodiazol-2-one] | 101.073
CCOc1ccc(C=C(C#N)C(=O)Nc2nccs2)cc1 [9-C06, 2-cyano-3-(4-ethoxyphenyl)-N-(1,3-thiazol-2-yl)prop-2-enamide] | 114.757
O=C(CCl)N(Cc1nc(C2CCCCCC2)no1)C1CC1 [7-B16, 2-chloro-N-[(3-cycloheptyl-1,2,4-oxadiazol-5-yl)methyl]-N-cyclopropylacetamide] | 78.179
COCC(C)n1c(C)cc(C=C(C#N)C(=O)NS(C)(=O)=O)c1C (centres unmarked) [8-B04, 2-cyano-N-methanesulfonyl-3-[1-(1-methoxypropan-2-yl)-2,5-dimethyl-1H-pyrrol-3-yl]prop-2-enamide] | 97.2614
Cc1ccc(C(=O)C(C)Cl)cc1C (centres unmarked) [10-B20, 2-chloro-1-(3,4-dimethylphenyl)propan-1-one] | 91.875
C=CC(=O)N(C)CCCn1c(=O)c(C)nc2ccccc21 [1-I08, N-methyl-N-[3-(3-methyl-2-oxo-1,2-dihydroquinoxalin-1-yl)propyl]prop-2-enamide] | 109.363
O=C(CCl)NCCc1nc2ccccc2s1 [6-K20, N-[2-(1,3-benzothiazol-2-yl)ethyl]-2-chloroacetamide] | 93.561
CN(C)c1ccc(C=C(C#N)C(=O)Nc2ccc3c(c2)OCCO3)cc1 [9-B21, 2-cyano-N-(2,3-dihydro-1,4-benzodioxin-6-yl)-3-[4-(dimethylamino)phenyl]prop-2-enamide] | 106.067
CC(Cl)C(=O)N1CCn2cccc2C1c1ccccc1 (centres unmarked) [7-E11, 2-chloro-1-{1-phenyl-1H,2H,3H,4H-pyrrolo[1,2-a]pyrazin-2-yl}propan-1-one] | 118.053
Cc1ccc(NC(=O)CN2CCN(C(=O)CCl)CC2)cc1.Cl [4-D16, 2-[4-(2-chloroacetyl)piperazin-1-yl]-N-(4-methylphenyl)acetamide hydrochloride] | 131.872
O=C(CCl)N(Cc1cnn(-c2ccccc2)c1)C1CC1 [6-L09, 2-chloro-N-cyclopropyl-N-[(1-phenyl-1H-pyrazol-4-yl)methyl]acetamide] | 96.6341
Cc1cc2ncn(CC(NC(=O)C(C)Cl)C3CC3)c2cc1C (centres unmarked) [7-J17, 2-chloro-N-[1-cyclopropyl-2-(5,6-dimethyl-1H-1,3-benzodiazol-1-yl)ethyl]propanamide] | 117.425
CC(C)c1ccc(Cn2[nH]ccc2=NC(=O)CCl)cc1 [5-P12, 2-chloro-N-(2-{[4-(propan-2-yl)phenyl]methyl}-2,3-dihydro-1H-pyrazol-3-ylidene)acetamide] | 96.1749
CC(Cl)C(=O)NC1c2cc(F)ccc2CC1C (centres unmarked) [7-E16, 2-chloro-N-(6-fluoro-2-methyl-2,3-dihydro-1H-inden-1-yl)propanamide] | 106.75

Compound | % of control remaining [%]
C=CC(=O)NCc1ccc(C(=O)N2CCCCC(SC)C2)cc1 (centres unmarked) [2-B20, N-({4-[3-(methylsulfanyl)azepane-1-carbonyl]phenyl}methyl)prop-2-enamide] | 123.238
CC(Cl)C(=O)NCCc1nc(C2CCCCC2)cs1 (centres unmarked) [7-F09, 2-chloro-N-[2-(4-cyclohexyl-1,3-thiazol-2-yl)ethyl]propanamide] | 109.576
N#CC(=Cc1ccc(Cl)cc1)C(=O)Nc1ccccn1 [9-H16, 3-(4-chlorophenyl)-2-cyano-N-(pyridin-2-yl)prop-2-enamide] | 89.2884
C=CC(=O)NCC(CC)n1nc(C)cc1C (centres unmarked) [1-K21, N-[2-(3,5-dimethyl-1H-pyrazol-1-yl)butyl]prop-2-enamide] | 106.549
C=CC(=O)NCc1nc(-c2ccccc2)oc1C [3-C05, N-[(5-methyl-2-phenyl-1,3-oxazol-4-yl)methyl]prop-2-enamide] | 104.832
Cc1nn(C)c(C)c1C=C(C#N)C(=O)Nc1ccccc1F [9-I07, 2-cyano-N-(2-fluorophenyl)-3-(1,3,5-trimethyl-1H-pyrazol-4-yl)prop-2-enamide] | 101.273
CC(Cl)C(=O)Nc1ccccc1OC(F)F (centres unmarked) [6-J08, 2-chloro-N-[2-(difluoromethoxy)phenyl]propanamide] | 92.878
N#CC(=Cc1ccc(C(F)(F)F)cc1)C(=O)Nc1ccccc1 [9-I04, 2-cyano-N-phenyl-3-[4-(trifluoromethyl)phenyl]prop-2-enamide] | 99.7753
C=CC(=O)N1CCC(CCO)c2ccccc21 (centres unmarked) [3-O03, 1-[4-(2-hydroxyethyl)-1,2,3,4-tetrahydroquinolin-1-yl]prop-2-en-1-one] | 111.798
C=CC(=O)Nc1ccc(C)cc1S(=O)(=O)N1CCOCC1 [1-O13, N-[4-methyl-2-(morpholine-4-sulfonyl)phenyl]prop-2-enamide] | 117.099
CC(Cl)C(=O)Nc1ccc(Cl)c(S(=O)(=O)N(C)C)c1 (centres unmarked) [5-G21, 2-chloro-N-[4-chloro-3-(dimethylsulfamoyl)phenyl]propanamide] | 102.368
COc1ccc(CNC(=O)C(C)Cl)cc1OC (centres unmarked) [6-P10, 2-chloro-N-[(3,4-dimethoxyphenyl)methyl]propanamide] | 91.5122
Cc1cc(C(=O)CCl)c(C)n1Cc1cccs1 [10-D03, 2-chloro-1-{2,5-dimethyl-1-[(thiophen-2-yl)methyl]-1H-pyrrol-3-yl}ethan-1-one] | 122.5
COc1ccc(CN(C)C(=O)CCl)cc1 [6-M15, 2-chloro-N-[(4-methoxyphenyl)methyl]-N-methylacetamide] | 90.8293
C=CC(=O)Nc1sc2c(c1C(=O)c1ccc(C)cc1)CCOC2 [1-J22, N-[3-(4-methylbenzoyl)-4H,5H,7H-thieno[2,3-c]pyran-2-yl]prop-2-enamide] | 128.703
O=C(CCl)Nc1ccccc1C(=O)Nc1ccc(Cl)cc1 [4-G10, 2-(2-chloroacetamido)-N-(4-chlorophenyl)benzamide] | 96.808
CN1C(=O)Cc2cc(C(=O)CCl)ccc21 [10-G07, 5-(2-chloroacetyl)-1-methyl-2,3-dihydro-1H-indol-2-one] | 132.813
N#CC(=Cc1c(F)c(F)c(F)c(F)c1F)C(=O)NC1CCCCC1 [8-O15, 2-cyano-N-cyclohexyl-3-(2,3,4,5,6-pentafluorophenyl)prop-2-enamide] | 32.5311
Cc1cc(Cl)ccc1CN1CCN(C(=O)C(C)Cl)CC1 (centres unmarked) [5-B13, 2-chloro-1-{4-[(4-chloro-2-methylphenyl)methyl]piperazin-1-yl}propan-1-one] | 101.639
C=CC(=O)N(Cc1nccc2c1CCCC2)C1CCCC(OC)C1 (centres unmarked) [1-F11, N-(3-methoxycyclohexyl)-N-[(5,6,7,8-tetrahydroisoquinolin-1-yl)methyl]prop-2-enamide] | 90.022
C=CC(=O)NC1CCS(=O)(=O)c2ccc(F)cc21 (centres unmarked) [2-J19, N-(6-fluoro-1,1-dioxo-3,4-dihydro-2H-1lambda6-benzothiopyran-4-yl)prop-2-enamide] | 104.439
C=CC(=O)NCCNS(=O)(=O)c1cc(C)sc1C [3-C21, N-[2-(2,5-dimethylthiophene-3-sulfonamido)ethyl]prop-2-enamide] | 105.181
